The other results are listed elsewhere or left out. The full chains were built here from the parent and the listed change. Inactive controls read about 0.05.
B1: TEV protease; numbered along this chain (parent)
chain: MGESLFKGPRDYNPISSSICHLTNESDGHTTSLYGIGFGPFIITNKHLFRRNNGTLVVQSLHGVFKVKDTTTLQQHLVDGRDMIIIRMPKDFPPFPQKLKFREPQREERICLVTTNFQTKSMSSMVSDTSCTFPSGDGIFWKHWIQTKDGQCGSPLVSTRDGFIVGIHSASNFTNTNNYFTSVPKNFMELLTNQEAQQWVSGWRLNADSVLWGGHKVFMVKPEEPFQPVKEATQL

Variants of: B1
Test: raw area under fraction-flipped curve 0-4 h after induction (AUC4h, not background-subtracted), DNA-recorder readout of cleavage of the substrate (dimensionless); higher = more cleavage of the substrate by the protease variant
Details: temperature: 34 °C; time window: 0-4 h after rhamnose induction
Description: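 In vivo DNA recorder in E. coli TOP10(DE3) ΔrhaA at 34 °C. Each TEVp single-site mutant (parent TEVp 0) is paired with a single-site variant of the 7-mer TEVs (canonical ENLYFQ|S). The substrate sits between flexible linkers in a Bxb1-sfGFP-TEVs-SsrA fusion, so cleavage stabilises Bxb1 and speeds flipping of a recombination array, read by NGS. The value is the raw area under the fraction-flipped curve over 0-4 h after rhamnose induction (AUC4h), with ≥20 reads per time point. It is not background-subtracted; inactive controls average about 0.047.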
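Also: Bxb1 expression induced with 0.2% (w/v) L-rhamnose at OD600 near 0.5, cultures sampled hourly, flipped fraction per protease–substrate barcode pair counted by paired-end Illumina sequencing.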

Variant	area with substrate ENAYFQS	area with substrate ENCYFQS	area with substrate ENDYFQS	area with substrate ENEYFQS	area with substrate ENFYFQS	area with substrate ENHYFQS	area with substrate ENKYFQS	area with substrate ENNYFQS	area with substrate ENPYFQS	area with substrate ENQYFQS	area with substrate ENRYFQS	area with substrate ENSYFQS	area with substrate ENGYFQS	area with substrate ENTYFQS	area with substrate ENVYFQS	area with substrate ENWYFQS	area with substrate ENIYFQS	area with substrate ENYYFQS	area with substrate ENMYFQS
MGESLFKGPRDTNPISSSICHLTNESDGHTTSLYGIGFGPFIITNKHLFRRNNGTLVVQSLHGVFKVKDTTTLQQHLVDGRDMIIIRMPKDFPPFPQKLKFREPQREERICLVTTNFQTKSMSSMVSDTSCTFPSGDGIFWKHWIQTKDGQCGSPLVSTRDGFIVGIHSASNFTNTNNYFTSVPKNFMELLTNQEAQQWVSGWRLNADSVLWGGHKVFMVKPEEPFQPVKEATQL [Y12T]	0.0614	0.0703	0.0552	0.0487	0.0525	0.0673	0.0671	0.0246	0.076	0.0655	0.0613	0.0649							
MGESLFKGPRDYNPISSSICHLTNEIDGHTTSLYGIGFGPFIITNKHLFRRNNGTLVVQSLHGVFKVKDTTTLQQHLVDGRDMIIIRMPKDFPPFPQKLKFREPQREERICLVTTNFQTKSMSSMVSDTSCTFPSGDGIFWKHWIQTKDGQCGSPLVSTRDGFIVGIHSASNFTNTNNYFTSVPKNFMELLTNQEAQQWVSGWRLNADSVLWGGHKVFMVKPEEPFQPVKEATQL [S26I]	0.0425	0.0539	0.0319	0.0691	0.0581	0.0587		0.0798		0.0559	0.0531	0.0657	0.0524	0.0735	0.0631	0.0445			
MGESLLKGPRDYNPISSSICHLTNESDGHTTSLYGIGFGPFIITNKHLFRRNNGTLVVQSLHGVFKVKDTTTLQQHLVDGRDMIIIRMPKDFPPFPQKLKFREPQREERICLVTTNFQTKSMSSMVSDTSCTFPSGDGIFWKHWIQTKDGQCGSPLVSTRDGFIVGIHSASNFTNTNNYFTSVPKNFMELLTNQEAQQWVSGWRLNADSVLWGGHKVFMVKPEEPFQPVKEATQL [F6L]	0.0686			0.0729	0.0489		0.0619				0.0767				0.0683				
MGKSLFKGPRDYNPISSSICHLTNESDGHTTSLYGIGFGPFIITNKHLFRRNNGTLVVQSLHGVFKVKDTTTLQQHLVDGRDMIIIRMPKDFPPFPQKLKFREPQREERICLVTTNFQTKSMSSMVSDTSCTFPSGDGIFWKHWIQTKDGQCGSPLVSTRDGFIVGIHSASNFTNTNNYFTSVPKNFMELLTNQEAQQWVSGWRLNADSVLWGGHKVFMVKPEEPFQPVKEATQL [E3K]	0.0531		0.0464	0.061	0.0657					0.0487		0.0593	0.0658		0.0827		0.215	0.0579	
MGESLFKGPRDYNPISSSICHLTIESDGHTTSLYGIGFGPFIITNKHLFRRNNGTLVVQSLHGVFKVKDTTTLQQHLVDGRDMIIIRMPKDFPPFPQKLKFREPQREERICLVTTNFQTKSMSSMVSDTSCTFPSGDGIFWKHWIQTKDGQCGSPLVSTRDGFIVGIHSASNFTNTNNYFTSVPKNFMELLTNQEAQQWVSGWRLNADSVLWGGHKVFMVKPEEPFQPVKEATQL [N24I]	0.0641		0.0703	0.0621	0.0672	0.061		0.0646		0.055	0.0665			0.0687	0.0612		0.0717	0.0548	0.0562
MGESLFKGPRDYNPISSSDCHLTNESDGHTTSLYGIGFGPFIITNKHLFRRNNGTLVVQSLHGVFKVKDTTTLQQHLVDGRDMIIIRMPKDFPPFPQKLKFREPQREERICLVTTNFQTKSMSSMVSDTSCTFPSGDGIFWKHWIQTKDGQCGSPLVSTRDGFIVGIHSASNFTNTNNYFTSVPKNFMELLTNQEAQQWVSGWRLNADSVLWGGHKVFMVKPEEPFQPVKEATQL [I19D]	0.0441	0.0362	0.0563	0.0406	0.0554	0.0417	0.0485	0.0616		0.0412	0.0445	0.0446	0.0367	0.0513	0.0311				0.0632
MGESLFKGSRDYNPISSSICHLTNESDGHTTSLYGIGFGPFIITNKHLFRRNNGTLVVQSLHGVFKVKDTTTLQQHLVDGRDMIIIRMPKDFPPFPQKLKFREPQREERICLVTTNFQTKSMSSMVSDTSCTFPSGDGIFWKHWIQTKDGQCGSPLVSTRDGFIVGIHSASNFTNTNNYFTSVPKNFMELLTNQEAQQWVSGWRLNADSVLWGGHKVFMVKPEEPFQPVKEATQL [P9S]	0.0574				0.0687	0.0511	0.0648	0.0952	0.0627	0.0677			0.0706	0.0565	0.0481		0.0911		
MGESSFKGPRDYNPISSSICHLTNESDGHTTSLYGIGFGPFIITNKHLFRRNNGTLVVQSLHGVFKVKDTTTLQQHLVDGRDMIIIRMPKDFPPFPQKLKFREPQREERICLVTTNFQTKSMSSMVSDTSCTFPSGDGIFWKHWIQTKDGQCGSPLVSTRDGFIVGIHSASNFTNTNNYFTSVPKNFMELLTNQEAQQWVSGWRLNADSVLWGGHKVFMVKPEEPFQPVKEATQL [L5S]	0.0634	0.071		0.0575	0.0553	0.0557		0.0621		0.0575	0.0393	0.0265	0.0684	0.0641	0.0844				
MGESGFKGPRDYNPISSSICHLTNESDGHTTSLYGIGFGPFIITNKHLFRRNNGTLVVQSLHGVFKVKDTTTLQQHLVDGRDMIIIRMPKDFPPFPQKLKFREPQREERICLVTTNFQTKSMSSMVSDTSCTFPSGDGIFWKHWIQTKDGQCGSPLVSTRDGFIVGIHSASNFTNTNNYFTSVPKNFMELLTNQEAQQWVSGWRLNADSVLWGGHKVFMVKPEEPFQPVKEATQL [L5G]	0.0525		0.0555		0.0716	0.0603	0.0562	0.0633	0.0569		0.0587	0.109	0.0488	0.0663	0.0613				0.0839

From the supplement of paper PMC12217912
